# The supplement of paper PMC8728848
# This is one part of the list.
# B1: FimA-N1 (Actinomyces oris) (protein)
# chain: MHHHHHHSSGVDLGTENLYFQSNATETPNYGNIKTDATGSLVIHKHLTGGGKDIGTPTGTAQNADDKGPAVEGVVFTAYPITDINLKDPAGWDTISNLSRTGVPDSACANPAAPTLGAHQFGTPKVSPATTKEGLATITEMPVQAYLVCETTTPGDIVQKAKPFVVTIPHPNTAAGADGQWIYDVNVYPKNEAIDVDKTIQAQK
# Tests used:
# Assay in all cases: glycan array binding signal (z-score within array); higher = stronger binding
# Details in all cases: glycan notation: IUPAC condensed, linker removed
# [1] = molecular target: Neu5Ac(a2-3)Gal(b1-3)GalNAc
# Method in brief: (§1)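 The binding signal is a Z-score computed within each array. Data were drawn from 3228 arrays in the Consortium for Functional Glycomics database, restricted to those with a known protein sequence. Scores were averaged over arrays of the same protein sequence at different concentrations or buffers, and over linkers, and negative values can be taken as non-binding.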
# [2] = molecular target: Neu5Ac(a2-3)Gal(b1-3)GalNAc(b1-3)Gal(a1-4)Gal(b1-4)Glc
# Method in brief: as §1
# [3] = molecular target: Neu5Ac(a2-3)Gal(b1-3)GalNAc(b1-4)[Neu5Ac(a2-3)]Gal(b1-4)Glc
# Method in brief: as §1
# [4] = molecular target: Neu5Ac(a2-3)Gal(b1-3)GalNAc(b1-4)[Neu5Ac(a2-8)Neu5Ac(a2-3)]Gal(b1-4)Glc
# Method in brief: as §1
# [5] = molecular target: Neu5Ac(a2-3)Gal(b1-3)GalNAc6S
# Method in brief: as §1
# [6] = molecular target: Neu5Ac(a2-3)Gal(b1-3)GlcNAc
# Method in brief: as §1
# [7] = molecular target: Neu5Ac(a2-3)Gal(b1-3)GlcNAc(b1-2)Man
# Method in brief: as §1
# [8] = molecular target: Neu5Ac(a2-3)Gal(b1-3)GlcNAc(b1-2)Man(a1-3)[GlcNAc(b1-4)][Neu5Ac(a2-3)Gal(b1-3)GlcNAc(b1-2)Man(a1-6)]Man(b1-4)GlcNAc(b1-4)GlcNAc
# Method in brief: as §1
# [9] = molecular target: Neu5Ac(a2-3)Gal(b1-3)GlcNAc(b1-2)Man(a1-3)[Neu5Ac(a2-3)Gal(b1-3)GlcNAc(b1-2)Man(a1-6)]Man(b1-4)GlcNAc(b1-4)GlcNAc
# Method in brief: as §1
# [10] = molecular target: Neu5Ac(a2-3)Gal(b1-3)GlcNAc(b1-3)Gal(b1-3)GlcNAc
# Method in brief: as §1
# [11] = molecular target: Neu5Ac(a2-3)Gal(b1-3)GlcNAc(b1-3)Gal(b1-4)GlcNAc
# Method in brief: as §1
# [12] = molecular target: Neu5Ac(a2-3)Gal(b1-3)GlcNAc(b1-3)GalNAc
# Method in brief: as §1
# [13] = molecular target: Neu5Ac(a2-3)Gal(b1-3)GlcNAc(b1-4)Gal(b1-4)Glc
# Method in brief: as §1
# [14] = molecular target: Neu5Ac(a2-3)Gal(b1-3)GlcNAc(b1-6)GalNAc
# Method in brief: as §1
# [15] = molecular target: Neu5Ac(a2-3)Gal(b1-3)GlcNAc6S
# Method in brief: as §1
# [16] = molecular target: Neu5Ac(a2-3)Gal(b1-3)[Fuc(a1-4)]GlcNAc
# Method in brief: as §1
# [17] = molecular target: Neu5Ac(a2-3)Gal(b1-3)[Fuc(a1-4)]GlcNAc(b1-3)Gal(b1-3)[Fuc(a1-4)]GlcNAc
# Method in brief: as §1
# [18] = molecular target: Neu5Ac(a2-3)Gal(b1-3)[Fuc(a1-4)]GlcNAc(b1-3)Gal(b1-4)[Fuc(a1-3)]GlcNAc
# Method in brief: as §1
# [19] = molecular target: Neu5Ac(a2-3)Gal(b1-3)[GlcNAc(b1-6)]GalNAc
# Method in brief: as §1
# [20] = molecular target: Neu5Ac(a2-3)Gal(b1-3)[Neu5Ac(a2-6)]GalNAc
# Method in brief: as §1
# [21] = molecular target: Neu5Ac(a2-3)Gal(b1-3)[Neu5Ac(a2-6)]GlcNAc(b1-3)[Fuc(a1-3)[Gal(b1-4)]GlcNAc(b1-6)]Gal(b1-4)Glc
# Method in brief: as §1
# [22] = molecular target: Neu5Ac(a2-3)Gal(b1-3)]Neu5Ac(a2-3)Gal(b1-4)]GlcNAc
# Method in brief: as §1
# Neu5Ac(a2-3)Gal(b1-4)Glc = molecular target: Neu5Ac(a2-3)Gal(b1-4)Glc
# Method in brief: as §1
# [23] = molecular target: Neu5Ac(a2-3)Gal(b1-4)GlcNAc
# Method in brief: as §1
# [24] = molecular target: Neu5Ac(a2-3)Gal(b1-4)GlcNAc(b1-2)Man
# Method in brief: as §1
# [25] = molecular target: Neu5Ac(a2-3)Gal(b1-4)GlcNAc(b1-2)Man(a1-3)[GlcNAc(b1-4)][Neu5Ac(a2-3)Gal(b1-4)GlcNAc(b1-2)Man(a1-6)]Man(b1-4)GlcNAc(b1-4)GlcNAc
# Method in brief: as §1
# [26] = molecular target: Neu5Ac(a2-3)Gal(b1-4)GlcNAc(b1-2)Man(a1-3)[Neu5Ac(a2-3)Gal(b1-4)GlcNAc(b1-2)Man(a1-6)]Man(b1-4)GlcNAc(b1-4)GlcNAc
# Method in brief: as §1
# [27] = molecular target: Neu5Ac(a2-3)Gal(b1-4)GlcNAc(b1-2)Man(a1-3)[Neu5Ac(a2-3)Gal(b1-4)GlcNAc(b1-2)Man(a1-6)]Man(b1-4)GlcNAc(b1-4)[Fuc(a1-6)]GlcNAc
# Method in brief: as §1
# [28] = molecular target: Neu5Ac(a2-3)Gal(b1-4)GlcNAc(b1-2)Man(a1-3)[Neu5Ac(a2-6)Gal(b1-4)GlcNAc(b1-2)Man(a1-6)]Man(b1-4)GlcNAc(b1-4)GlcNAc
# Method in brief: as §1
# [29] = molecular target: Neu5Ac(a2-3)Gal(b1-4)GlcNAc(b1-2)[Neu5Ac(a2-3)Gal(b1-4)GlcNAc(b1-4)]Man(a1-3)[GlcNAc(b1-4)][Neu5Ac(a2-3)Gal(b1-4)GlcNAc(b1-2)[Neu5Ac(a2-3)Gal(b1-4)GlcNAc(b1-6)]Man(a1-6)]Man(b1-4)GlcNAc(b1-4)GlcNAc
# Method in brief: as §1
# [30] = molecular target: Neu5Ac(a2-3)Gal(b1-4)GlcNAc(b1-2)[Neu5Ac(a2-3)Gal(b1-4)GlcNAc(b1-4)]Man(a1-3)[GlcNAc(b1-4)][Neu5Ac(a2-3)Gal(b1-4)GlcNAc(b1-4)Man(a1-6)]Man(b1-4)GlcNAc(b1-4)GlcNAc
# Method in brief: as §1
# [31] = molecular target: Neu5Ac(a2-3)Gal(b1-4)GlcNAc(b1-2)[Neu5Ac(a2-3)Gal(b1-4)GlcNAc(b1-6)]Man(a1-6)[Neu5Ac(a2-3)Gal(b1-4)GlcNAc(b1-2)Man(a1-3)]Man(b1-4)GlcNAc(b1-4)GlcNAc
# Method in brief: as §1
# [32] = molecular target: Neu5Ac(a2-3)Gal(b1-4)GlcNAc(b1-2)[Neu5Ac(a2-3)Gal(b1-4)GlcNAc(b1-6)]Man(a1-6)[Neu5Ac(a2-3)Gal(b1-4)GlcNAc(b1-2)Man(a1-3)][GlcNAc(b1-4)]Man(b1-4)GlcNAc(b1-4)GlcNAc
# Method in brief: as §1
# [33] = molecular target: Neu5Ac(a2-3)Gal(b1-4)GlcNAc(b1-3)Gal
# Method in brief: as §1
# [34] = molecular target: Neu5Ac(a2-3)Gal(b1-4)GlcNAc(b1-3)Gal(b1-3)GlcNAc
# Method in brief: as §1
# [35] = molecular target: Neu5Ac(a2-3)Gal(b1-4)GlcNAc(b1-3)Gal(b1-4)GlcNAc
# Method in brief: as §1
# [36] = molecular target: Neu5Ac(a2-3)Gal(b1-4)GlcNAc(b1-3)Gal(b1-4)GlcNAc(b1-2)Man(a1-3)[Neu5Ac(a2-3)Gal(b1-4)GlcNAc(b1-3)Gal(b1-4)GlcNAc(b1-2)Man(a1-6)]Man(b1-4)GlcNAc(b1-4)GlcNAc
# Method in brief: as §1
# [37] = molecular target: Neu5Ac(a2-3)Gal(b1-4)GlcNAc(b1-3)Gal(b1-4)GlcNAc(b1-3)Gal(b1-4)GlcNAc
# Method in brief: as §1
# [38] = molecular target: Neu5Ac(a2-3)Gal(b1-4)GlcNAc(b1-3)Gal(b1-4)GlcNAc(b1-3)Gal(b1-4)GlcNAc(b1-2)Man(a1-3)[Neu5Ac(a2-3)Gal(b1-4)GlcNAc(b1-3)Gal(b1-4)GlcNAc(b1-3)Gal(b1-4)GlcNAc(b1-2)Man(a1-6)]GalNAc
# Method in brief: as §1
# [39] = molecular target: Neu5Ac(a2-3)Gal(b1-4)GlcNAc(b1-3)Gal(b1-4)GlcNAc(b1-3)GalNAc
# Method in brief: as §1
# [40] = molecular target: Neu5Ac(a2-3)Gal(b1-4)GlcNAc(b1-3)Gal(b1-4)GlcNAc(b1-3)[Neu5Ac(a2-3)Gal(b1-4)GlcNAc(b1-3)Gal(b1-4)GlcNAc(b1-6)]GalNAc
# Method in brief: as §1
# [41] = molecular target: Neu5Ac(a2-3)Gal(b1-4)GlcNAc(b1-3)Gal(b1-4)GlcNAc(b1-6)[Gal(b1-3)]GalNAc
# Method in brief: as §1
# [42] = molecular target: Neu5Ac(a2-3)Gal(b1-4)GlcNAc(b1-3)Gal(b1-4)[Fuc(a1-3)]GlcNAc
# Method in brief: as §1
# [43] = molecular target: Neu5Ac(a2-3)Gal(b1-4)GlcNAc(b1-3)GalNAc
# Method in brief: as §1
# [44] = molecular target: Neu5Ac(a2-3)Gal(b1-4)GlcNAc(b1-3)[Neu5Ac(a2-3)Gal(b1-4)GlcNAc(b1-6)]GalNAc
# Method in brief: as §1
binder,measurement,setting,value
B1,glycan array binding signal (z-score),[1],0.262
same,glycan array binding signal (z-score),[2],-0.235
same,glycan array binding signal (z-score),[3],0.282
same,glycan array binding signal (z-score),[4],-0.565
same,glycan array binding signal (z-score),[5],-0.296
same,glycan array binding signal (z-score),[6],0.086
same,glycan array binding signal (z-score),[7],-0.051
same,glycan array binding signal (z-score),[8],-0.41
same,glycan array binding signal (z-score),[9],0.232
same,glycan array binding signal (z-score),[10],-0.344
same,glycan array binding signal (z-score),[11],-0.463
same,glycan array binding signal (z-score),[12],-0.22
same,glycan array binding signal (z-score),[13],-0.472
same,glycan array binding signal (z-score),[14],0.079
same,glycan array binding signal (z-score),[15],-0.179
same,glycan array binding signal (z-score),[16],-0.213
same,glycan array binding signal (z-score),[17],-0.037
same,glycan array binding signal (z-score),[18],0.11
same,glycan array binding signal (z-score),[19],0.125
same,glycan array binding signal (z-score),[20],-0.045
same,glycan array binding signal (z-score),[21],-0.155
same,glycan array binding signal (z-score),[22],0.05
same,glycan array binding signal (z-score),Neu5Ac(a2-3)Gal(b1-4)Glc,-0.037
same,glycan array binding signal (z-score),[23],-0.146
same,glycan array binding signal (z-score),[24],0.189
same,glycan array binding signal (z-score),[25],-0.199
same,glycan array binding signal (z-score),[26],-0.075
same,glycan array binding signal (z-score),[27],-0.355
same,glycan array binding signal (z-score),[28],-0.244
same,glycan array binding signal (z-score),[29],-0.149
same,glycan array binding signal (z-score),[30],0.037
same,glycan array binding signal (z-score),[31],-0.205
same,glycan array binding signal (z-score),[32],-0.572
same,glycan array binding signal (z-score),[33],-0.466
same,glycan array binding signal (z-score),[34],-0.379
same,glycan array binding signal (z-score),[35],0.158
same,glycan array binding signal (z-score),[36],0.014
same,glycan array binding signal (z-score),[37],-0.142
same,glycan array binding signal (z-score),[38],2.52
same,glycan array binding signal (z-score),[39],0.148
same,glycan array binding signal (z-score),[40],-0.021
same,glycan array binding signal (z-score),[41],-0.419
same,glycan array binding signal (z-score),[42],-0.16
same,glycan array binding signal (z-score),[43],-0.181
same,glycan array binding signal (z-score),[44],-0.03
